Experimental data published in the supplement of paper PMC4604168 (melanoma cell lines).
The other results are listed elsewhere or left out. Many values rest on one well or one pass, so single values are uncertain.

How the values were obtained:
Assay in all cases: cell count relative to DMSO control; melanoma cells; higher = more viable cells
Conditions in all cases: library dose: low library concentration; 72 h
MZ2-MEL = tested on: MZ2-MEL
MeWo = tested on: MeWo
RPMI7951 = tested on: RPMI7951
RVH-421 = tested on: RVH-421
SkMel28 = tested on: SkMel28
SkMel2 = tested on: SkMel2
SkMel30 = tested on: SkMel30
SkMel5 = tested on: SkMel5
UACC257 = tested on: UACC257
UACC62 = tested on: UACC62
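Further: cell number obtained by counting DAPI-stained nuclei in high-throughput microscope images with image analysis software, screen run in 1,536-well plates.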

Structure (SMILES)	cell count (MZ2-MEL) [%]	cell count (MeWo) [%]	cell count (RPMI7951) [%]	cell count (RVH-421) [%]	cell count (SkMel28) [%]	cell count (SkMel2) [%]	cell count (SkMel30) [%]	cell count (SkMel5) [%]	cell count (UACC257) [%]	cell count (UACC62) [%]
Cn1c(=O)n(-c2ccc(C(C)(C)C#N)cc2)c2c3cc(-c4cnc5ccccc5c4)ccc3ncc21 + COc1cc2ncnc(Nc3ccc(Oc4ccccc4)cc3)c2cc1OC [SrcI1] (first compound 0.004 µM, partner dose 2 µM)	94	72.8	76.8	151	78.2	91.9	60.6	114	92.9	90.7
COc1ccc(C2=N[C@@H](c3ccc(Cl)cc3)[C@@H](c3ccc(Cl)cc3)N2C(=O)N2CCNC(=O)C2)c(OC(C)C)c1 [Nutlin-3] + NC(=O)Nc1cc(-c2cccc(F)c2)sc1C(=O)N[C@H]1CCCNC1 [AZD7762] (first compound 0.1 µM, partner dose 0.02 µM)	101	90.8	98.6	104	95.8	118	84.7	89.2	86.7	96.4
Cn1c(=O)n(-c2ccc(C(C)(C)C#N)cc2)c2c3cc(-c4cnc5ccccc5c4)ccc3ncc21 + C=CCn1c(=O)c2cnc(Nc3ccc(N4CCN(C)CC4)cc3)nc2n1-c1cccc(C(C)(C)O)n1 [MK1775] (first compound 0.004 µM, partner dose 0.02 µM)	98.7	81.2	93.2	97.4	72.5	87	73.9	85.2	73.9	76.4
CC(C)C[C@H](NC(=O)[C@H](Cc1ccccc1)NC(=O)c1cnccn1)B(O)O [Bortezomib] + CO[C@@H]1[C@H](N(C)C(=O)c2ccccc2)C[C@H]2O[C@]1(C)n1c3ccccc3c3c4c(c5c6ccccc6n2c5c31)C(=O)NC4 [Midostaurin] (first compound 0.001 µM, partner dose 0.08 µM)	71.3	78.4	59.2	58.1	108	80.3	108	91.6	59.5	75.6
Cn1c(=O)n(-c2ccc(C(C)(C)C#N)cc2)c2c3cc(-c4cnc5ccccc5c4)ccc3ncc21 + Cn1cc(/C=C2\C(=O)Nc3cccnc32)c2ccccc21 [GW441756] (first compound 0.004 µM, partner dose 0.4 µM)	100	80.7	94.4	94.1	79.5	100	89.6	91.9	80	87.5
CC(C)C[C@H](NC(=O)[C@H](Cc1ccccc1)NC(=O)c1cnccn1)B(O)O [Bortezomib] + COc1cc(N2CCC(N3CCN(C)CC3)CC2)ccc1Nc1ncc(Cl)c(Nc2ccccc2S(=O)(=O)C(C)C)n1 [NVP-TAE684] (first compound 0.001 µM, partner dose 0.08 µM)	90.4	73.3	82.5	56.2	61.6	87.2	72.3	90.2	53.8	90.1
Cc1cc(Nc2cc(N3CCN(C)CC3)nc(/C=C/c3ccccc3)n2)n[nH]1 + CO[C@@H]1[C@H](N(C)C(=O)c2ccccc2)C[C@H]2O[C@]1(C)n1c3ccccc3c3c4c(c5c6ccccc6n2c5c31)C(=O)NC4 [Midostaurin] (first compound 0.04 µM, partner dose 0.08 µM)	93.1	93	86.5	79.8	84.6	92.2	101	85.9	80.4	103
Cc1cc(Nc2cc(N3CCN(C)CC3)nc(/C=C/c3ccccc3)n2)n[nH]1 + CN(C)S(=O)(=O)c1ccc2c(c1)/C(=C/c1cc3c([nH]1)CCCC3)C(=O)N2 [SU6656] (first compound 0.04 µM, partner dose 0.4 µM)	101	87.6	106	94.3	83.4	107	92.4	107	113	97.2
CC(C)C[C@H](NC(=O)[C@H](Cc1ccccc1)NC(=O)c1cnccn1)B(O)O [Bortezomib] + O=C(CCCCCCC(=O)Nc1ccccc1)NO [vorinostat] (first compound 0.001 µM, partner dose 0.08 µM)	97.8	90.5	95	72	82.4	95.6	92.8	98.7	68.8	87.6
Cc1cn(-c2cc(NC(=O)c3ccc(C)c(Nc4nccc(-c5cccnc5)n4)c3)cc(C(F)(F)F)c2)cn1 [nilotinib] + COc1ccc(-c2ccc3c(N4CCOCC4)nc(N4C[C@@H](C)O[C@@H](C)C4)nc3n2)cc1CO [KU0063794] (first compound 0.2 µM, partner dose 0.02 µM)	90.2	107	95.7	110	91.4	98.4	91.8	109	72.4	85.6
Cc1cn(-c2cc(NC(=O)c3ccc(C)c(Nc4nccc(-c5cccnc5)n4)c3)cc(C(F)(F)F)c2)cn1 [nilotinib] + N#Cc1c(O)c2c(-c3ccc(-c4ccccc4O)cc3)csc2[nH]c1=O [A769662] (first compound 0.2 µM, partner dose 2 µM)	103	102	80.2	87.6	107	98.1	87.3	105	92.3	97
COc1ccc(C2=N[C@@H](c3ccc(Cl)cc3)[C@@H](c3ccc(Cl)cc3)N2C(=O)N2CCNC(=O)C2)c(OC(C)C)c1 [Nutlin-3] + NCC(=O)Nc1ccc(-n2nc(C(F)(F)F)cc2-c2ccc3c(ccc4ccccc43)c2)cc1 [OSU03012] (first compound 0.1 µM, partner dose 1 µM)	97.2	58.3	103	80.1	68.5	72.5	44.9	86.6	76.9	97.7
Cn1c(=O)n(-c2ccc(C(C)(C)C#N)cc2)c2c3cc(-c4cnc5ccccc5c4)ccc3ncc21 + CN(C)S(=O)(=O)c1ccc2c(c1)/C(=C/c1cc3c([nH]1)CCCC3)C(=O)N2 [SU6656] (first compound 0.004 µM, partner dose 0.4 µM)	100	96.4	113	102	78.3	97.7	97.7	107	84.5	87.6
Cc1cc(Nc2cc(N3CCN(C)CC3)nc(/C=C/c3ccccc3)n2)n[nH]1 + O=c1cc(-c2cccc3c2Sc2ccccc2S3)oc(N2CCOCC2)c1 [KU55933] (first compound 0.04 µM, partner dose 1 µM)	112	39.7	98.1	90.7	96.5	102	82.8	104	117	102
COc1ccc(C2=N[C@@H](c3ccc(Cl)cc3)[C@@H](c3ccc(Cl)cc3)N2C(=O)N2CCNC(=O)C2)c(OC(C)C)c1 [Nutlin-3] + Cc1cc([N+](=O)[O-])ccc1NS(=O)(=O)c1cc(Cl)ccc1Cl [FH535] (first compound 0.1 µM, partner dose 1 µM)	107	107	105	88.3	91.5	96.5	89	93.8	87.4	81.9
Cc1cn(-c2cc(NC(=O)c3ccc(C)c(Nc4nccc(-c5cccnc5)n4)c3)cc(C(F)(F)F)c2)cn1 [nilotinib] + Oc1cc(-c2nc(-c3ccccc3)[nH]c2-c2ccncc2)ccc1Cl [L779450] (first compound 0.2 µM, partner dose 0.2 µM)	83.6	106	112	83.5	84.9	0.962	103	106	93.8	72
COc1ccc(C2=N[C@@H](c3ccc(Cl)cc3)[C@@H](c3ccc(Cl)cc3)N2C(=O)N2CCNC(=O)C2)c(OC(C)C)c1 [Nutlin-3] + COc1cc(N2CCC(N3CCN(C)CC3)CC2)ccc1Nc1ncc(Cl)c(Nc2ccccc2S(=O)(=O)C(C)C)n1 [NVP-TAE684] (first compound 0.1 µM, partner dose 0.08 µM)	97.5	88.3	90.4	83.2	93.7	84.3	79.8	102	82.2	73.3
Cn1c(=O)n(-c2ccc(C(C)(C)C#N)cc2)c2c3cc(-c4cnc5ccccc5c4)ccc3ncc21 + Cc1ccc(NC(=O)c2cccc(N(C)C)c2)cc1NC(=O)c1ccc(O)cc1 [ZM336372] (first compound 0.004 µM, partner dose 2 µM)	85.4	82.2	98.9	90.3	92	111	97.6	124	88	92.5
Cc1cn(-c2cc(NC(=O)c3ccc(C)c(Nc4nccc(-c5cccnc5)n4)c3)cc(C(F)(F)F)c2)cn1 [nilotinib] + OCCn1cc(-c2cnc3nnn(Cc4ccc5ncccc5c4)c3n2)cn1 [PF04217903] (first compound 0.2 µM, partner dose 1 µM)	112	94.3	91.2	118	109	103	91.2	93.9	112	120
Cn1c(=O)n(-c2ccc(C(C)(C)C#N)cc2)c2c3cc(-c4cnc5ccccc5c4)ccc3ncc21 + N#Cc1c(O)c2c(-c3ccc(-c4ccccc4O)cc3)csc2[nH]c1=O [A769662] (first compound 0.004 µM, partner dose 2 µM)	98.9	90.9	108	93.4	66.5	93.5	64.9	103	115	99
COc1ccc(C2=N[C@@H](c3ccc(Cl)cc3)[C@@H](c3ccc(Cl)cc3)N2C(=O)N2CCNC(=O)C2)c(OC(C)C)c1 [Nutlin-3] + Cn1cncc1[C@@](N)(c1ccc(Cl)cc1)c1ccc2c(c1)c(-c1cccc(Cl)c1)cc(=O)n2C [tipifarnib] (first compound 0.1 µM, partner dose 0.01 µM)	93	88.7	93.3	85.2	67	80.6	121	100	80.6	72.2
